# In PubChem BioAssay AID588689 (Southern Research Specialized Biocontainment Screening …, 2011):
# About 1,000 (0.29%) of roughly 340,000 compounds were called active. The shares of active, inactive and inconclusive entries below differ from those in the screen. Cut-off read from the data, not from the text of the source: inconclusive = inhibition above about 29% without an active follow-up result; inactive = below that.
# Target: Genome polyprotein (Dengue virus type 2 (strain 16681-PDK53)) (UniProt P29991)
# Test: Dengue-2 NS5 methyltransferase inhibitors, primary screen, biochemical, confirmation dose response (AID 588689)
# Conditions: Dengue-2 NS5 methyltransferase capping enzyme assay, at 25 µM, stronger effect = higher value
row,Compound,inhibition
1,COc1ccc(Nc2nc3ccccc3nc2-n2nc(C)cc2C)cc1,inconclusive: 91.7%
2,CC(C)NS(=O)(=O)c1ccc(OCC(=O)NCc2ccco2)cc1,inactive: -2.21%
3,COCCOC(=O)c1sc2nc[nH]c(=O)c2c1C,inactive: -12.3%
4,Cc1cccc(N2C(=O)c3cccc4c(N)ccc(c34)C2=O)c1,inconclusive: 70.6%
5,CC(=O)n1c(C=Nc2ccc(Cl)cc2)c(O)c2ccccc21,inconclusive: 124%
6,O=C(CN1C(=O)/C(=C\c2cccc(Br)c2)Oc2ccccc21)NCCCN1CCOCC1,inactive: 0.88%
7,CC(=O)Oc1oc(-c2ccccc2)nc1C=Nc1ccc(N(C)C)cc1,inconclusive: 37.5%
8,O=C(Cc1n[nH]c(=O)[nH]c1=O)N/N=C/c1c(O)ccc2ccccc12,inconclusive: 75.2%
9,Cc1ccc2oc(=O)c(/C=C(\O)c3ccco3)nc2c1,inconclusive: 52%
10,Cc1cc(=O)oc2c(CN3CCC(C)CC3)c(O)c(Cl)cc12,inconclusive: 32.7%
11,O=C1OC(c2ccccc2)(c2ccccc2)c2ccccc21,inactive: -6.99%
12,CCOc1ccc(C2C(C(=O)c3ccc(C)o3)=C(O)C(=O)N2c2nc(C)c(C(=O)OC)s2)cc1 (stereo not drawn),inactive: 10.7%
13,Cc1cc2nc3c(=O)n(C4CCCCC4)c(=O)[nH]c3nc2cc1N,inconclusive: 182%
14,CCCn1c(O)c(N=Nc2ccc3ccccc3n2)c2ccccc21,inconclusive: 31.6%
15,COC(=O)c1ccc2c(c1)C(C)(C)C(/C=C/c1ccccc1O)=[N+]2C,inconclusive: 28.9%
16,Cc1ccc2cc(C=O)c(Cl)nc2c1,inactive: -3.88%
17,CCc1ccc(S(=O)(=O)/N=C2\C=C(Nc3ccc(C(=O)O)cc3)C(=O)c3ccccc32)cc1,inactive: 26.1%
18,Cn1cc(C(=O)Nc2ccc(F)c(F)c2)cn1,inactive: 0%
19,CN(C)c1ccc(/C=N/NC(=O)c2cnc3ccccc3c2)cc1,inconclusive: 45.7%
20,Clc1ccc(-c2cn3nc4c(nc3n2)CCCC4)cc1,inconclusive: 104%
21,CCCC(=O)N(c1ccc(C(=O)O)cc1)c1nc(-c2ccccc2)c(C)s1,inactive: -13.9%
22,CN1CCN(C2=Nc3c(Cl)cc(Cl)c4cccc2c34)CC1,inconclusive: 33.2%

row,Compound,inhibition
1,CCOc1cc(C(=O)Nc2ccc3c4c(cccc24)C(=O)N3CC)cc(OCC)c1OCC,inconclusive: 34.5%
2,CSc1nsc(SCC(=O)Nc2ccc(NC(C)=O)cc2)n1,inactive: 2.42%
3,Cc1cc(O)c(CN(C)C)c2c1C(=O)/C(=C/c1ccco1)O2,inconclusive: 37.2%
4,Cc1cc(C)c(S(=O)(=O)/N=C2/C=C(Sc3ncn[nH]3)C(=O)c3ccccc32)cc1C,inconclusive: 90%
5,CC(=O)C(C(C)=O)c1c(Cl)c(O)c(O)c2c(C(=O)c3ccccc3)coc12,inconclusive: 73.3%
6,Cc1cc2cc(C=C(C#N)C#N)c(Cl)nc2cc1C,inconclusive: 61.7%
7,O=[N+]([O-])c1cnc2ccccc2c1,inactive: 3.89%
8,CCCCCCSc1cc(-c2nc3cc(C)ccn3c2NC2CCCCC2)ccc1OC,inactive: -8.81%
9,Cc1cc[n+](-c2[nH]c(=O)sc2/C=N/NC([S-])=Nc2ccccc2)cc1C,inconclusive: 58.3%
10,COC(=O)\C(C(C)=O)=C(/C=C/C=C/C=C/N(C)C)N(C)C,inconclusive: 45.3%
11,CC(=O)OCC1CCCC2=C(C)C(=O)CCC21COC(C)=O (stereo not drawn),inactive: 3.29%
12,O=C(NCc1ccc(OC(F)(F)F)cc1)c1cccc2c1C(=O)c1ccc(N3CCCCC3)cc1S2(=O)=O,inconclusive: 83.7%
13,COc1ccc(C(C#N)=C2C=C(Cl)C(=NO)C=C2Cl)cc1,inactive: 27.6%
14,Cc1cccn2c(=O)c3cc(S(=O)(=O)c4ccccc4)c(=N)n(Cc4cccnc4)c3nc12,inconclusive: 122%
15,Cc1ccc(Sc2sc(=O)n(C)c2S(=O)(=O)c2ccc(C)cc2)cc1,inactive: -2.3%
16,Cc1cccc(C)c1OCC(O)Cn1c2ccccc2c2ccccc21 (stereo not drawn),inactive: -10.5%
17,COc1cccc(C(=O)/C=C/Nc2ccc(S(=O)(=O)Nc3cnc4ccccc4n3)cc2)c1,inconclusive: 32%
18,O=C(Cc1nc2ccccc2[nH]c1=O)c1ccccc1,inconclusive: 87.3%
19,COc1ccc(C(=O)Nc2ccc3nc(N4CCOCC4)sc3c2)cc1OC,inactive: -1.84%
20,Nc1c(N2CCCC2)cc(Cl)c2nonc12,inconclusive: 38.7%
21,C=CCn1c(=O)/c(=C/c2ccsc2)s/c1=C(\C#N)C(=O)NCCN1CCOCC1,inconclusive: 40.5%
22,CC1CCN(Cc2c(O)ccc3c2O/C(=C\c2ccco2)C3=O)CC1,inconclusive: 34.9%

row,Compound,inhibition
1,O=C(Nc1ccc2nc3ccccc3nc2c1)c1ccc(Br)cc1,inconclusive: 35.4%
2,COc1ccc2c3c(cccc13)N(C)N=C2C,inconclusive: 129%
3,COc1cc2c3nnc(-c4ccc(F)cc4)c-3cn(Cc3ccccc3)c2cc1OC,inconclusive: 54.2%
4,Nc1ccc(N2CCCCC2)cc1N1CCCCC1,inactive: 25.7%
5,O=C(CCc1ccc(S(=O)(=O)N2CCOCC2)cc1)N/N=C/c1ccc(F)cc1F,inactive: -6.07%
6,Cc1ccccc1-n1cnnc1SCC(=O)Nc1cccnc1Cl,inactive: 2.99%
7,O=C(O)CCCN1C(=O)/C(=C\c2ccc(-c3nc4ccccc4s3)o2)SC1=S,inconclusive: 78.2%
8,Cc1ccc2nc(/C(C#N)=C\c3ccc(N4CCOCC4)o3)[nH]c2c1,inconclusive: 177%
9,CCOC(=O)CNc1ccc2c(c1)OCO2,inconclusive: 139%
10,CCN1/C(=N\N)c2cccc3cccc1c23,inconclusive: 48.9%
11,Cc1cc(C)nc(SCC(=O)Nc2ccc(S(=O)(=O)Nc3cc(C)on3)cc2)n1,inactive: -0.67%
12,Cc1onc(-c2ccccc2)c1C(=O)OCC(=O)c1ccc[nH]1,inactive: -1.1%
13,Cc1ccsc1C1NC(=O)c2c(sc3c2CCN(C)C3)N1 (stereo not drawn),inconclusive: 65.4%
14,N#Cc1cc(C(=O)c2ccccc2O)cn(-c2nccs2)c1=O,inconclusive: 152%
15,CCOC(=O)c1ccccc1NS(=O)(=O)c1ccc(OCC)cc1,inactive: -6.45%
16,CN(C)c1ccc(/C=N/N(CCO)C2=NS(=O)(=O)c3ccccc32)cc1,inconclusive: 172%
17,O=C(c1ccccc1C(=O)N1CCN(c2ccccc2)CC1)N1CCN(c2ccccc2)CC1,inconclusive: 54.6%
18,CCOC(=O)c1c(C)nc2c(c1-c1cc(OC)ccc1OC)C(=O)c1ccccc1-2,inactive: 0%
19,O=c1oc2ccccc2cc1-c1nc(-c2cccs2)cs1,inconclusive: 114%
20,CCN1C(=O)C(=Cc2cccc(OC)c2Oc2ccc([N+](=O)[O-])cc2[N+](=O)[O-])SC1=S,inactive: -1.31%
21,Cn1cc(/C=C(\C#N)C(=O)Nc2ncc(Cc3ccc(Cl)cc3)s2)c2ccccc21,inconclusive: 35.6%
22,O=C(O)c1cc(-c2ccco2)nc2ccc(Br)cc12,inconclusive: 80.6%

row,Compound,inhibition
1,O=C(CN1C(=O)NC2(CCCc3ccccc32)C1=O)c1ccccc1F (stereo not drawn),inconclusive: 39.6%
2,O=C(NC1CCCCC1)c1cccc2c1C(=O)c1ccc(N3CCC(Cc4ccccc4)CC3)cc1S2(=O)=O,inconclusive: 70.6%
3,COc1ccc(NC(=O)c2sc3nc(-c4cccnc4)ccc3c2N)cc1,inconclusive: 92%
4,COc1cc(/C=C2\SC(=Nc3ccc(Cl)c(C(=O)O)c3)NC2=O)c(Br)c(Br)c1O,inconclusive: 44.8%
5,CN(C)S(=O)(=O)c1cccc(-c2nn(-c3ccccc3)cc2/C=C(\C#N)c2nc3ccccc3[nH]2)c1,inconclusive: 28.9%
6,O=C(CCN1C(=O)/C(=C\C=C\c2ccccc2)SC1=S)Nc1ccc(C(=O)O)cc1,inactive: 9.75%
7,COc1ccc2nc(N3CCCC3)c(C#N)cc2c1,inactive: 12.8%
8,COc1cc2c(cc1N/C=C(\C#N)c1nc(-c3ccc(F)cc3)cs1)oc1ccccc12,inconclusive: 73.3%
9,CCc1ccc(/C=C2/SC(=S)N(CCC(=O)Nc3cccnc3)C2=O)cc1,inconclusive: 29.9%
10,O=CN/N=C/c1c(O)ccc2ccccc12,inconclusive: 70.2%
11,O=c1oc2ccc(Cl)cc2nc1/C=C(\O)c1ccco1,inconclusive: 34.5%
12,COc1ccc2nc3ccccc3nc2c1,inactive: 18.8%
13,CCOC(=O)/C=c1\s/c(=C\c2ccc3c(c2)OCCO3)c(=O)n1CC(=O)NCC1CCCO1 (stereo not drawn),inconclusive: 35.1%
14,CN(c1ccccc1)c1ccc(/C=C(\CCC(=O)O)c2nc3ccccc3s2)cc1[N+](=O)[O-],inactive: 26.1%
15,Cc1nnc(Sc2cc(NCCO)c([N+](=O)[O-])c3nonc23)s1,inactive: 1.46%
16,COc1ccc(CCn2c(=N)c(S(=O)(=O)c3ccc(C)cc3)cc3c(=O)n4ccccc4nc32)cc1,inconclusive: 114%
17,Cc1cc(NC(=O)/C(C#N)=C\c2ccc(-c3ccc(SC(F)F)cc3)o2)n(-c2ccccc2)n1,inconclusive: 40.6%
18,CN(C)S(=O)(=O)c1cc(NC(=O)CN2CCc3ccccc32)ccc1Cl,inconclusive: 38.6%
19,O=C(O)COc1ccccc1/C=N/NC(=O)/C(=C\c1ccc2c(c1)OCO2)NC(=O)c1ccccc1,inconclusive: 41%
20,COc1ccc(S(=O)(=O)Nc2cc3c(C(C)=O)c(C)oc3c3ccccc23)cc1,inactive: -1.56%
21,CCc1ccc(S(=O)(=O)/N=C2/C=C(Sc3ncn[nH]3)C(=O)c3ccccc32)cc1,inconclusive: 84.1%
22,N=c1c(S(=O)(=O)c2ccc(Cl)cc2)cc2c(=O)n3ccccc3nc2n1CCc1ccccc1,inconclusive: 73%
